Source: PMC6919601, “Identification of Plasmodium dipeptidyl aminopeptidase allosteric inhibitors by high throughput screening” (PLoS ONE, 2019)
Where “and” joins values, the source holds several entries; their conditions need not be identical. Equal entries are not always repeated. Hit rate of the full screen: of about 110,000 compounds, about 230 (0.21%) showed an effect of 50% or more. The list shows a part of the results. Where a SMILES comes first, the peptide text is derived from it.

The compounds below were run against DPAP1 (Plasmodium falciparum, UniProt Q8IIJ9) (assay: primary screen, percent inhibition; read by cleavage of a fluorogenic dipeptide substrate; higher = more effect of the substance).
Parameters: species or system P. falciparum D10 trophozoite lysates; single well
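Note: 30 min substrate incubation versus DMSO and 10 µM JCP410 controls.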

DPAP1, sequence (Q8IIJ9 whole entry, looked up): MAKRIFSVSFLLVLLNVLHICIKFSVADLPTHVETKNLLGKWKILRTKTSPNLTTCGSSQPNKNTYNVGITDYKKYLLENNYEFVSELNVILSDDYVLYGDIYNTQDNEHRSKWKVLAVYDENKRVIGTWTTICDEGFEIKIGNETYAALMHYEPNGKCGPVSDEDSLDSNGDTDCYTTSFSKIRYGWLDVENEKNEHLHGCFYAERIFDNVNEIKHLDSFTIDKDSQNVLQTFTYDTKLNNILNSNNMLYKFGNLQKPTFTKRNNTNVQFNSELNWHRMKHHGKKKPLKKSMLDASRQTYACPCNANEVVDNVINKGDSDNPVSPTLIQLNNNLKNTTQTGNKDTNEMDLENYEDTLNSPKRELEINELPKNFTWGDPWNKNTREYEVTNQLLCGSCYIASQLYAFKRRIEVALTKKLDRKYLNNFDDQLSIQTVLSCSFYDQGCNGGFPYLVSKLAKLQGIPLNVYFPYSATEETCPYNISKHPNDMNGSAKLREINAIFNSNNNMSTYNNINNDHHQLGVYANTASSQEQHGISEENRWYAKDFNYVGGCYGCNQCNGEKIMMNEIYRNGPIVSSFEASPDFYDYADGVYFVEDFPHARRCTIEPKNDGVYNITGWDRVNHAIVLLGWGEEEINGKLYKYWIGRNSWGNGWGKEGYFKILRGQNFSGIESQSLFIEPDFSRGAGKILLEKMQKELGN

| SMILES | % Inhibition @ 10 uM |
| --- | --- |
| CCOc1cccc(/C=C2/NC(=O)N(CC(=O)Nc3cccc(C)c3)C2=O)c1O | -6.83% |
| COc1ccc(N/C=C(\C#N)C(=O)NC(=O)c2ccccc2)cc1 | -1.06% |
| CCCN(CCC)CCNC(=O)c1cc2c(s1)-c1ccccc1S(=O)(=O)C2 | -0.447% |
| Cc1sc2c(C)[n+](CCCS(=O)(=O)O)sc2c1C | -4.78% |
| Cn1ncc2c1ncn1nc(-c3ccncc3)nc21 | 3.77% |
| COc1ccc(-c2csc(Nc3ccccc3OC)n2)cc1F | 2.6% and -1.56% |
| O=C(Cc1cn2ccccc2n1)c1ccc(O)cc1O | -3.92% |
| Cc1cccnc1NC1c2ccccc2C(=O)N1Cc1ccccc1 (stereo not shown) | -1.08% |
| CC1CCC(NCCc2c[nH]c3ccccc23)CC1 (stereo not shown) | -2.56% |
| Cc1ccc2cnn(CC(=O)NCCCN3CCCC3=O)c2c1 | 5.39% |
| CCSc1nc(=O)n(-c2ccccc2)c(C)c1C(C)=O | -5.51% |
| CCOc1ccc2nc(NC(=O)CSc3nc(C)c(Cc4ccc(O)cc4)[nH]3)sc2c1 | 1.76% |
| COc1ccc(C2Nc3cc(C)ccc3N=C3CC(C)(C)CC(O)=C32)cc1OC (stereo not shown) | 1.02% |
| O=C(Nc1cccnc1)c1cc(-c2ccccc2Cl)on1 | 0.221% |
| Cc1ccc(C(N)=O)c[n+]1Cc1ccccc1 | -0.996% |
| Nc1c(-c2cccc(C(F)(F)F)c2)cnn1C(=O)c1ccc(Cl)cc1 | -2.88% |
| O=C(Nc1ccc(S(=O)(=O)N2CCCCCC2)cc1)c1ccc(Br)o1 | 3.79% |
| CCOc1ccc(N2CC(C(=O)Nc3ccc(F)cc3)CC2=O)cc1 (stereo not shown) | -0.992% |
| CCC1CCCCN1Cc1ccc(CNC(=O)CCc2nnc3ccc(N4CCOCC4)nn23)o1 (stereo not shown) | 6.76% |
| COc1ccc(/C=c2/sc3nc4c(C)cc(C)cc4n3c2=O)cc1OC | -0.053% |
| CCOc1ccc(N(CC(=O)Nc2cc(Cl)ccc2C)S(C)(=O)=O)cc1 | 7.89% |
| Cc1cccn2c(=O)c(/C=C(\C#N)C(=O)NCCCOC(C)C)c(Oc3ccccc3F)nc12 | -5.1% |
| OCCNCc1ccccc1OCc1ccccc1Cl | -2.83% |
| O=C1/C(=C/c2cccnc2)N2CCC1CC2 | 7.57% |
| Cc1ccc(Cn2c(=O)c3ccccc3n3c(CCC(=O)NCCN4CCOCC4)nnc23)cc1 | 4.16% |

| SMILES | % Inhibition @ 10 uM |
| --- | --- |
| CC1=C(c2ccc(C)c(C)c2)S(=O)(=O)N=C1N1CCC(C(=O)NCC(C)c2ccccc2)CC1 (stereo not shown) | -4.36% |
| COc1ccc(OCC(=O)Nc2cccc(C(F)(F)F)c2)cc1 | 2.3% |
| Nc1nonc1C(=O)NCCNCc1c(OCc2ccc(F)cc2)ccc2ccccc12 | -5.33% |
| CCOC(=O)c1c(-c2ccccc2)oc2ccc(O)c(CN3CCN(C)CC3)c12 | 4.35% |
| Cc1ccc(C(=O)NCc2ccco2)cc1Cl | -5.46% |
| N#CC1=C(N)OC2=C(C(=O)CCC2)C1c1ccc2ccccc2c1 (stereo not shown) | -1.38% |
| COc1ccc(-c2cn3nc(N4CCCC(C(=O)Nc5cc(C)on5)C4)sc3n2)cc1 (stereo not shown) | 1.46% |
| Cc1cc(C)c(S(=O)(=O)NCC2CCCO2)c(C)c1 (stereo not shown) | 0.634% |
| O=C(O)c1sc2cc(F)ccc2c1Cl | 0.986% |
| Cc1cccc(NC(=O)CN(C2CCCCC2)S(C)(=O)=O)c1 | 3.81% |
| CCCCN(Cc1ccccc1)C(=O)C1CCN(S(=O)(=O)c2cccc3nsnc23)CC1 | 1.69% |
| CC(C)C(NC(=O)C(N)CCCN=C(N)N)C(=O)O (stereo not drawn) (H-Arg-Val-OH; configuration not given here) | 4.65% |
| Cc1ccc(NC(=O)CN2C(=O)C3C4CCC(C4)C3C2=O)cc1C (stereo not shown) | 3.5% |
| O=C(NCc1ccco1)/C(=C/c1ccccc1)NC(=O)c1ccco1 | 20% |
| Cc1cccc2c(CC(NC(=O)c3ccc(-c4ccccc4Cl)cc3)C(=O)NCC#N)c[nH]c12 (stereo not shown) | -5.2% |
| COc1ccccc1CNc1nc(SC)ncc1CO | -5.13% |
| CCN1C(=N)N(c2nc(N(C)C)nc(N(C)C)n2)CC1=O | -4.8% |
| COc1ccccc1NC(=O)c1ccccc1Cl | 3.54% |
| C=CCSC1=NC2(CC(c3ccccc3)c3ccc(O)c(O)c3O2)CC(C)(C)N1 (stereo not shown) | -1.24% |
| C=CCSc1nc2ccccc2c(=O)n1Cc1ccccc1 | -10.2% |
| CC(C)c1ccc(C(=O)Nc2ccc(NC(=O)c3cccs3)cc2)cc1 | -17% |
| COc1cccc(C2c3c(-c4ccc(F)cc4)nnc(O)c3Nc3nnnn32)c1 (stereo not shown) | 0.401% |
| COc1cc(C(=O)N(Cc2ccc(N(C)C)cc2)C2CCS(=O)(=O)C2)cc(OC)c1OC (stereo not shown) | 3.74% |
| COCCCn1c(=N)c(C#N)cc2c(=O)n3cc(C)ccc3nc21 | 0.279% |
| CC1(C)CC(c2nc(-c3ccc(Br)cc3)cs2)CCO1 (stereo not shown) | -0.216% |

| SMILES | % Inhibition @ 10 uM |
| --- | --- |
| O=C(c1ncc[nH]1)c1ccccc1C(=O)N1CCOCC1 | 2.65% |
| COC(=O)C1C(=O)NCC1c1ccc(OC)cc1 (stereo not shown) | -0.546% |
| CCc1ccc(CNC(=O)CSc2nc3nncc-3c(O)n2-c2ccccc2Cl)cc1 | -0.406% |
| O=C1[C@@H]2C3CCC(O3)[C@H]2C(=O)N1CNc1ccc(Cl)c(Cl)c1 | 0.35% |
| CCc1ccc(CNC(=O)C2CCN(S(=O)(=O)N3CCC4(CC3)OCCO4)CC2)cc1 | 6.86% |
| CCN(CC)CCCNCc1ccc(OC)cc1OC | 0.387% |
| CN(C(=O)c1ccccc1[N+](=O)[O-])c1ccccc1 | 3.47% |
| Cc1cccc(-c2c(C#N)cnc3ncnn23)c1 | -4.76% |
| COCCOC(=O)c1c(C)oc2ccc(OCC(=O)c3ccccc3)cc12 | 0.487% |
| COc1cccc(-c2nn(C)c3sc(C(=O)N4CCC(C(N)=O)CC4)cc23)c1 | -0.499% |
| N#CC1=C(N)Oc2[nH]nc(-c3ccc4c(c3)OCO4)c2C1c1ccco1 (stereo not shown) | 0.674% |
| Cc1cc(C)n(CC(=O)n2c3ccccc3c3ccccc32)n1 | 2.3% |
| CCOC(=O)c1oc2ccc(CNC(C)(C)C)c(Cl)c2c1C | 4.6% |
| COc1cccc(CNc2nc3ccc(Cl)cc3nc2-n2nc(C)cc2C)c1 | 0.244% |
| CCOc1ccc(CCNC(=O)C2=C(C)C(=O)OC23CCN(S(=O)(=O)CC)CC3)cc1 | -2.13% |
| O=C(/C=C/c1ccccc1)NCCc1ccccc1 | -4.87% |
| CN(Cc1ccccc1)C(=O)CCc1nc(CN2CCN(C(=O)c3noc4c3CCCC4)CC2)no1 | 7.82% |
| O=C(c1ccc(F)cc1)N1CCN(Cc2ccc3c(c2)OCO3)CC1 | 7.49% |
| O=C(O)c1ccc(CSc2nc3n(n2)C(c2ccc(F)cc2)C2=C(O)CCCC2=N3)cc1 (stereo not shown) | 3.2% |
| CC1CC(=O)C2=C(C1)OC(N)=C(C#N)C2c1ccsc1 (stereo not shown) | -1.38% |
| c1ccc(CC2NCCn3cccc32)cc1 (stereo not shown) | -4.01% |
| CSc1cc(C)c(OCC(=O)Nc2ccc(NC(C)=O)cc2)c(C)c1 | -5.24% |
| Cc1nnc2sc(NC(=O)CCc3ccccc3)nn12 | -3.73% |
| CC1(C)CC(NC(=O)c2ccccc2C(=O)NC2CC(C)(C)NC(C)(C)C2)CC(C)(C)N1 | 1.57% |
| Cc1ccc(-c2ccc(=O)n(CCC(=O)NCc3ccc4c(c3)OCO4)n2)cc1 | -3.58% |

| SMILES | % Inhibition @ 10 uM |
| --- | --- |
| CCOC(=O)c1[nH]c2ccccc2c1NC(=O)c1cccc(C(F)(F)F)c1 | -0.58% |
| CC1=C(C(N)=O)C(c2ccccc2Cl)n2nnnc2N1 (stereo not shown) | 0.0598% |
| Cc1nnc(N2CCC(C(=O)NCc3ccc(OC(C)C)cc3)CC2)c2nn(-c3ccccc3)c(C)c12 | 0.58% |
| COCCN1C(=O)/C(=C\c2ccc(C(C)C)cc2)C(C(=O)OC)=C1C | -3.06% |
| Cc1ccc(C(=O)N/C(=C/c2ccc(Cl)cc2)c2nc3ccccc3[nH]2)cc1 | -1.37% |
| Cc1cc(C)nc(SCC(=O)NCc2ccccc2)n1 | 0.0719% |
| N#CC1=C(N)OC2=C(C(=O)CCC2)C1c1ccccc1F (stereo not shown) | -3.26% |
| O=C(Nc1cc(Cl)cc(Cl)c1)c1ccccc1 | -6.01% |
| CCCOC(=O)c1nc2ncc(Br)cn2n1 | 2.65% |
| Cc1cc(C)n2nc(S(=O)(=O)Nc3c(Cl)nc(C)c(Cl)c3C)nc2n1 | 4.42% |
| COc1ccc2nc3oc(C(=O)NCc4ccc(C)o4)cc3cc2c1 | -3.58% |
| CCCC(=O)Nc1ccc2nc(SCC(=O)N3CCCC3)sc2c1 | -3.63% |
| COc1cc(/C=C2/N=C(c3cccc4ccccc34)OC2=O)cc(OC)c1OC | 3.1% |
| COc1ccc(-c2noc(CNC(=O)c3ccccc3F)n2)cc1 | 3.54% |
| COC(=O)C1=CNC=C(C(=O)OC)C1c1cccc(C)c1 | -2.15% |
| COc1cc(Br)cc(/C=C2/NC(=O)NC2=O)c1OC | 2.17% |
| O=C(NCc1ccccc1Cl)C(=O)Nc1cccc(Cl)c1Cl | 3.44% |
| CC(C)NS(=O)(=O)c1cnccc1N1CCN(CCO)CC1 | 0.0285% |
| O=S(=O)(NCCc1nc2ccccc2n1S(=O)(=O)c1ccccc1)c1ccccc1 | -5.33% |
| N#CC1=C(N)Oc2cc(O)c(Cl)cc2C1c1cccc2ccccc12 (stereo not shown) | 6.8% |
| Cc1ccc(C2OCC3(CO2)SC(N)=NC3=O)cc1 (stereo not shown) | 2.08% |
| Cc1ccccc1C(=O)Nc1cccc(C#N)c1 | 0.408% |
| Cn1c(=O)c2c(nc(CN3CCN(CCO)CC3)n2CCN2CCOCC2)n(C)c1=O | -6.71% |
| CCOc1ccc(C2C(C#N)=C(N)Oc3c2c(C)nn3-c2ccccc2)cc1OCC (stereo not shown) | 4.28% |
| O=C(NCc1cccnc1)C1CCN(S(=O)(=O)c2cccs2)CC1 | -0.601% |
